Out of some 48,000 compounds screened, about 1,200 (2.5%) were called active. Another 2% or so got no clear call; they are omitted.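 Rule for the calls: active = activation of at least 60% and not above a set upper limit (about 1 call in 100 departs from these limits); inconclusive = activation of 40% to 60%, or above that upper limit; inactive = activation under 40%.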 The list shows a part of the results.

The assay addresses Probable G-protein coupled receptor 32 (Homo sapiens) (UniProt O75388). The assay can be described thus: qHTS for Agonists of Human Resolvin D1 Receptor DRV1. Note: 0% is about no effect. As to conditions: CHO-K1 GPR32 beta-arrestin PathHunter luminescence, 90 min; at 76.9 µM; stronger effect = higher value; zero percent set by DMSO-only wells. The method, boiled down: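 Step 1: seed CHO-K1 GPR32 beta-arrestin cells, 2,500/well, overnight at 37 °C. Step 2: add compounds, 90 min at 37 °C. Step 3: detection reagent, 1 h ambient, then luminescence.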
UniProt O75388, sequence (O75388 whole entry, looked up): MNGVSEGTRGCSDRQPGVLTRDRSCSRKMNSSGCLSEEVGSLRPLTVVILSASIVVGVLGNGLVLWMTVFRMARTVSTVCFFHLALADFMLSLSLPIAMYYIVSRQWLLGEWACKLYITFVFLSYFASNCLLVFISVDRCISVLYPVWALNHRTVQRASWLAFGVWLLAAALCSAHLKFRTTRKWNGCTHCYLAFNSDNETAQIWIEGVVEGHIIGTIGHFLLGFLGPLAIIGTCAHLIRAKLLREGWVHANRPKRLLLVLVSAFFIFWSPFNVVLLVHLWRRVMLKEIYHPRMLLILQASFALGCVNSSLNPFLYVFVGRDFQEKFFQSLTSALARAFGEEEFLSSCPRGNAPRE
Consider `Cc1cc(C)c(NC(=O)C(=O)NCC(c2cccnc2)N2CCN(c3ccccc3F)CC2)c(C)c1` (centres undefined), for which the activation was inactive: -11.9%.
Then `CCc1cccc(NC(=O)c2cc3c(s2)-c2ccccc2OC3)c1`, with inactive: -5.34%; and `C=Cc1ccc(Cn2c(C)c(CNCc3ccc(SC)cc3)c(C(=O)O)c2C)cc1`, with inactive: -0.807%; and `CN(Cc1ccccc1)c1ccc(-c2nc(-c3ccccc3)no2)cc1[N+](=O)[O-]`, with inactive: 0.001%.
Then `Cc1ccccc1NC(=O)CSC1=Nc2ccccc2C2=NC(Cc3ccccc3)C(=O)N12` (centres undefined), with inactive: -7.07%; and `Cc1ccc(OCc2nc(C#N)c(NCCc3ccccc3)o2)cc1`, with inactive: -12.5%; and `COC(=O)c1ccc2c(=O)n3nc(Nc4cc(OC)ccc4OC)sc3nc2c1`, with inactive: -2.38%.
Then `Cc1ccccc1/C=C/C1=NCCN1`, with inactive: -3.56%; and `COc1ccc(Cl)cc1NC(=O)CSc1nnc2[nH]c(=O)cc(-c3ccccc3)n12`, with inactive: 11.6%.
On to `Cc1ccc2[nH]c(=O)c3cc(C(=O)N(CCCOC(C)C)Cc4ccco4)sc3c2c1`, for which the activation was inactive: -10.4%.
With `CCC(Sc1ncc(S(=O)(=O)c2ccc(Cl)cc2)c(=O)[nH]1)C(=O)Nc1ccc(OC)cc1` (centres undefined), the activation was inactive: -3.28%.
Then `CCOC(=O)C1CCCN(S(=O)(=O)c2ccc3c(c2)N(C)C(=O)CC(=O)N3C)C1` (centres undefined), with inactive: 7.2%.
To `COc1cc(-c2nnc(SCC(=O)Nc3cccc(C#N)c3)o2)cc(OC)c1OC` belongs inactive: -9.63%.
Then `COc1ccc(CCNC(=O)CN2C(=O)COc3ccc(S(=O)(=O)N4CCCCCC4)cc32)cc1OC`, with inactive: -0.34%; and `COCCCNC(=O)Cn1c(=O)n(-c2ccc(Cl)cc2)c(=O)c2c3c(sc21)CCCCC3`, with active: 60.1%.
Regarding `CCc1ccc(CNC(=O)c2cnc3sc(N(CC)CC)nn3c2=O)cc1`, the activation was inactive: 0.0345%.
Regarding `O=C(Cn1ncc2c3ccccc3n(Cc3ccc(Cl)cc3)c2c1=O)NC1CCCCCC1`, the activation was inactive: 4.18%.
As to `CCc1ccccc1NC(=O)C(=O)NCCc1sc(-c2cccc(C)c2)nc1C`, the activation is inactive: 24.6%.
Regarding `CCOc1ccc(-n2c(=O)c3sc4ccccc4c3n(Cc3ccc(F)cc3)c2=O)cc1`, the activation is inactive: 1.98%.
For the molecule `Cc1ccc(NC(=O)c2ccc(CN3CC(=O)N4CCCCC4C3=O)cc2)cc1C` (centres undefined), the activation is inactive: -14.6%.
Then `Cc1ccc(Cl)cc1N1CCN(S(=O)(=O)c2ccc3c(c2)CC(=O)N3C)CC1`, with inactive: -0.995%.
In the case of `CCCCC(CC)Cn1c(Oc2ccccc2)nc2c1c(=O)n(C)c(=O)n2C` (centres undefined), the activation is inactive: 14.1%.
Then `CC(C)c1cnc2c(c1SCC(=O)Nc1cccc([N+](=O)[O-])c1)c(=O)n(C)c(=O)n2C`, with inactive: -23%.
Then `CCn1c(SCC(=O)Nc2ccc(C)c(C)c2)nnc1-c1nonc1NC(C)=O`, with inactive: -31.5%; and `COCCCNc1ncnc2c1nnn2C`, with inactive: -19.4%; and `Cc1ccc(N(CC(=O)Nc2ccc(OC(F)(F)F)cc2)S(=O)(=O)c2c(C)noc2C)cc1`, with inactive: 40.4%.
Turning to `Cc1[nH]c2c(C)cccc2c1CCNC(=O)c1cc2ccccc2oc1=O`, the activation is inactive: -13.2%.
To `Cc1cccc(-c2[nH]c(C(C)(C)C)nc2-c2ccc3nccnc3c2)n1` belongs inactive: -8.51%; to `O=c1oc2ccc3ccccc3c2cc1-c1nnc(Nc2cc(C(F)(F)F)ccc2Cl)s1`, inactive: 4.53%.
Regarding `Cc1ccc(O)c(NC(=O)c2nc3nc(C)cc(C(F)F)n3n2)c1`, the activation was inactive: 2.44%.
On to `COCCn1c(SCC(=O)c2c[nH]c3ccccc23)nc2cc(C(=O)NCC(C)C)ccc2c1=O`, for which the activation is inactive: 4.99%.
With `COc1cccc(N2CCN(C(=O)c3nc(-c4ccc(Cl)cc4)n4c3CCCCC4)CC2)c1`, the activation is inactive: -15%.
Then `CCc1ccc(CNC(=O)c2cc3c(s2)-c2ccccc2OC3)cc1`, with inactive: -1.44%.
Then `Cc1nc(N2CCCC2)ncc1C(=O)NCc1ccccc1Cl`, with inactive: 1.03%.
In the case of `CCc1nnc2n1N(C(C)=O)C(c1ccc(C(C)(C)C)cc1)=C(C(C)=O)S2`, the activation was inactive: -43.9%.
Then `COc1cc(NC(=O)CSc2nc3nc(C)c(Cc4ccccc4)c(C)n3n2)cc(OC)c1OC`, with inactive: -3.26%; and `COC(=O)c1ccc(NC(=O)C2CCN(S(=O)(=O)c3ccc4c(c3)CCCN4C(C)=O)CC2)cc1`, with inactive: 19.8%; and `O=S(=O)(c1cccc(Cl)c1)c1nnn2c1nc(NC1CCCC1)c1sccc12`, with inactive: -21.3%.
To `COc1ccc(CC(=O)Nc2sc3c(c2C(=O)Nc2ccc(C)cc2)CCCCC3)cc1` belongs inactive: -21.5%.
To `CCc1cccc(C)c1Nc1c(-c2cccc(O)c2)nc2sccn12` belongs inactive: -22%; to `Cc1[nH]c2ccccc2c1C1(O)C(=O)N(Cc2ccc(Cl)cc2)c2ccccc21` (centres undefined), inactive: -28.1%.
`CCOC(=O)c1cc2c(=O)n3ccccc3nc2n(CC2CCCO2)c1=NC(=O)c1cc(C)cc(C)c1` (centres undefined): the activation is inactive: 10.7%.
On to `N#C/C(=C\c1ccccc1F)c1nc2ccccc2c(=O)[nH]1`, for which the activation is inactive: 24.3%.
To `CC(=O)c1ccc(NC(=O)CN2C(=O)CCc3cc(S(=O)(=O)N4CCC(C)CC4)ccc32)cc1` belongs inactive: -6.47%; to `COc1cccc(NC(=O)CCc2nnc3n(CC(C)C)c(=O)c4ccccc4n23)c1`, inactive: -2.05%; to `O=C(/C=C/c1ccccc1)Nc1nc(-c2cccs2)ns1`, active: 80.8%.
To `Cc1cc(C)cc(NS(=O)(=O)c2ccc3[nH]cc(C(=O)NCc4ccco4)c(=O)c3c2)c1` belongs active: 98.7%; to `CCCn1ccc2c(OCC(=O)Nc3ccc(C(F)(F)F)cc3)cccc2c1=O`, inactive: -0.0614%.
Then `O=C(Nc1ccc(Cl)c(C(F)(F)F)c1)c1cc2nc(-c3ccc4c(c3)OCO4)cc(C(F)(F)F)n2n1`, with inactive: 3.56%; and `COc1ccc(NC(=O)CSc2n[nH]c(-c3ccccc3)n2)cc1Cl`, with inactive: 17.1%; and `O=C(Nc1ccccc1F)c1oc2ccccc2c1NC(=O)C12CC3CC(CC(C3)C1)C2`, with inactive: -5.26%.
`CCOc1ccccc1C(=O)Nc1cc2c(cc1N1CCCCC1)n(C)c(=O)n2C`: the activation is active: 69.7%.
On to `CCC(O)c1nc2ccccc2n1CCOc1cc(C)cc(C)c1` (centres undefined), for which the activation was inactive: -2.57%.
Regarding `CCOC(=O)c1noc2nc(C)n(CC(=O)Nc3ccc(Br)cc3C)c(=O)c12`, the activation was inactive: 3.61%.
Regarding `CCOc1ccccc1N(CC)C(=O)c1cc2c(=O)n(CC)c3ccccc3c2s1`, the activation was inactive: -26.7%.
Then `Cc1cc(Nc2cccc(C(F)(F)F)c2)nc2ccc(NC(=O)c3cncc(Br)c3)cc12`, with inactive: -22.9%; and `Cc1ccc(CN(C(=O)c2ccc([N+](=O)[O-])cc2)c2ccccn2)cc1`, with inactive: -0.707%.
With `CC1(CN2CCC(n3c(=O)[nH]c4ccccc43)CC2)OCc2ccccc2-n2cccc21` (centres undefined), the activation is inactive: 13.2%.
For `COc1ccc(OC)c(-n2cnc3cc(C(=O)NCCc4ccccc4)ccc32)c1`, the activation is inactive: -7.92%.
Turning to `CC(C)OC(=O)c1c(NC(=O)c2cc3nc(-c4ccccc4)cc(C(F)(F)F)n3n2)sc2c1CCCC2`, the activation was inactive: -19.5%.
Turning to `Cc1ccc(-c2nnc3ccccc3c2C(=O)Nc2cccc(C(F)(F)F)c2)cc1`, the activation was inactive: -4.72%.
To `Cc1ccc(OCC(=O)Nc2ccccc2C(=O)OCc2cc(=O)n3c(C)csc3n2)cc1` belongs inactive: 1.35%.
In the case of `CC(C(=O)NCc1ccc(Cl)cc1)n1ccc2cc(S(=O)(=O)N3CCCC3)ccc21` (centres undefined), the activation is inactive: 13.2%.
In the case of `COc1ccc(CCN(C)CCc2ccc(OC)c(OC)c2)cc1OC`, the activation was inactive: 0.0002%.
Regarding `CSc1nnc2c(n1)OC(c1cccc(O)c1Cl)Nc1ccccc1-2` (centres undefined), the activation is inactive: -6.11%.
Then `CC1=C(C(=O)Nc2ccc(C)cc2C)C(c2ccc[nH]2)n2ncnc2N1` (centres undefined), with inactive: 9.23%; and `Cc1nn(C)c2c1c(C(F)(F)F)cc(=O)n2CC(=O)NC(C)(C)C`, with inactive: 13.8%; and `COc1ccc(CCCc2nnc(SCC(=O)Nc3ccc(Cl)cc3)o2)cc1`, with inactive: -9.94%.
To `CCOc1ccc(OCC)c(NC(=O)c2c(C)nn(-c3ccccc3)c2-n2cccc2)c1` belongs inactive: -21.9%.
For `COc1ccc(-c2cc(-c3ccc(F)cc3)nc3c2COc2ccccc2-3)cc1`, the activation was inactive: -1.09%.
To `CCc1ccc(CNC(=O)c2sc3ncnc(N(C)C4CCCCC4)c3c2C)cc1` belongs inactive: -17.2%.
Consider `CCc1ccccc1NC(=O)c1ccc2[nH]c(C)c(C)c2c1`, for which the activation was inactive: 7.48%.
On to `Cc1oc2ncnc(N3CCCCC3)c2c1C(=O)Nc1cccc(F)c1`, for which the activation is inactive: -29.1%.
Then `Cc1ccccc1CN1C(=O)C(O)(CC(=O)c2cccc(Br)c2)c2ccccc21` (centres undefined), with inactive: -15.4%; and `CCOc1ccccc1C1Nc2ccccc2-c2nnc(SCc3ccccc3)nc2O1` (centres undefined), with inactive: 5.98%.
For `Cc1c(C(=O)NCc2ccccc2)oc2c1-c1[nH]ncc1CC2`, the activation is inactive: -6.13%.
To `COc1ccc(Nc2cc(C(=O)NCCCN(C)C3CCCCC3)c3ccccc3n2)cc1` belongs inactive: -23%; to `CCOc1ccc(-c2nnc(SCC(=O)NCCc3ccccc3)nc2-c2ccc(OCC)c(OC)c2)cc1OC`, inactive: -18.1%; to `CCCN(C(=O)Cn1nc(Cc2ccncc2)c2ccccc2c1=O)c1ccccc1C`, inactive: -11.2%.
Then `Cc1cc(O)c(CN2CCN(c3ccc(F)cc3)CC2)c2oc(=O)cc(C)c12`, with inactive: -15%; and `Cc1cccc(C(=O)Nc2nnc(S(=O)(=O)N3c4ccccc4CC3C)s2)c1` (centres undefined), with inactive: 27.9%; and `COCCCn1c(=N)c(C(=O)NC2CCCC2)cc2c(=O)n3cc(C)ccc3nc21`, with inactive: -0.0945%.
Then `COc1ccc(Br)cc1CNC(=O)c1ccc(-n2c(C)cc3c2CCC(C)C3)cc1` (centres undefined), with inactive: -18.9%.
Take `CCN(CC)C(=O)C1=C(C)Nc2nc3ccccc3n2C1c1ccc(Cl)cc1` (centres undefined): the activation is inactive: -7.96%.

The values are drawn from PubChem BioAssay AID1346428 (National Center for Advancing Translational Sciences (NCATS), 2018).
